For three molecules, binding results are on record in publication PMC6822988, “Native adiponectin in serum binds to mammalian cells expressing T-cadherin, but not AdipoRs or calreticulin” (eLife, 2019).

The chains behind the UniProt entries cited, without tags or fusion partners. Residues count along the entry.
UniProt P14211, residues 18-416: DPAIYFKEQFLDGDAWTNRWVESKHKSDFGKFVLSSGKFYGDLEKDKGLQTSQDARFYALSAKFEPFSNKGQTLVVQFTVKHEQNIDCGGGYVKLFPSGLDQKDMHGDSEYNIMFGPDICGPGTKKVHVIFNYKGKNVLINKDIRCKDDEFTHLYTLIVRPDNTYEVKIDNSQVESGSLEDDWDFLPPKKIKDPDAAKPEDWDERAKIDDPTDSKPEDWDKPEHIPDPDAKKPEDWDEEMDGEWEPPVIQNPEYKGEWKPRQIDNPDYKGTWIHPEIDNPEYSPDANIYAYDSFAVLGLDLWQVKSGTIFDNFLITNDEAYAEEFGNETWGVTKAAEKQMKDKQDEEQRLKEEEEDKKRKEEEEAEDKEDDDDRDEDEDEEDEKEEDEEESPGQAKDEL

No constants are given. Whether binding was seen depends on the method and setting. Some binding calls cover weakened binding; strength is not graded here. For some of these results: Where a sequence is shown, tags or fusion partners need not be part of it.

The target of experiment [1] is T1, mouse AdipoR1 expressed on HEK293 cells (mouse), Q91VH1.
T1 chain: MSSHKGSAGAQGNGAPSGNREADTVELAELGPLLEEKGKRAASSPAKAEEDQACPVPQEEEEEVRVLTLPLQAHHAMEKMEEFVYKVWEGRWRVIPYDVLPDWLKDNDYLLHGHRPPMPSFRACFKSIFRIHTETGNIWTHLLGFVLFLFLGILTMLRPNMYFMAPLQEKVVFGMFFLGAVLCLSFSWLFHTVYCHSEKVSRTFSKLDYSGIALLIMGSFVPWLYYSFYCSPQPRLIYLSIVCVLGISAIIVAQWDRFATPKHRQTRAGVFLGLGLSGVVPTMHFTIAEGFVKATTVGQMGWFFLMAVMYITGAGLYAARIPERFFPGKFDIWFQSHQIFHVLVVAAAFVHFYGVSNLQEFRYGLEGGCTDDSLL
As to the kind of experiment: cell-based binding, bound adiponectin detected by Western blot of the cell lysate; adiponectin purified from mouse serum or recombinant adiponectin applied to transiently transfected HEK293 cells, 4°C, 1 hr; only the binder purified. The settings on record: remark: other sources report otherwise. In general terms: A western blot detects proteins with antibodies after separation by electrophoresis.

For experiment [2], the target named is T2, PA-tagged mouse AdipoR1 stably expressed on CHO cells (mouse), Q91VH1.
T2 chain: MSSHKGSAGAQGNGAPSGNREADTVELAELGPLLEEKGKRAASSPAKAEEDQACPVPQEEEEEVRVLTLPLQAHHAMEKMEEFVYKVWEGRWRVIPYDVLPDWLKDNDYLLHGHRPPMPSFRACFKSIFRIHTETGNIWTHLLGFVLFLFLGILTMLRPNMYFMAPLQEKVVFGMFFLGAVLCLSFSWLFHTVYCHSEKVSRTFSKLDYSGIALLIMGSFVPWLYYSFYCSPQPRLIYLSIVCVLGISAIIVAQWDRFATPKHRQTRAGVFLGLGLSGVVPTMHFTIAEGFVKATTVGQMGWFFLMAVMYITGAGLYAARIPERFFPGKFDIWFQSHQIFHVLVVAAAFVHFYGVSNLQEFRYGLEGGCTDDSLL
As to the kind of experiment: cell-based binding, bound adiponectin detected by Western blot of the cell lysate; mouse serum applied to CHO cells stably expressing PA-tagged receptors, 4°C, 1 hr, washed three times. The settings on record: remark: other sources report otherwise.

Experiment [3] deals with T3, PA-tagged mouse AdipoR1 transiently expressed on HEK293 cells (mouse), Q91VH1.
T3 chain: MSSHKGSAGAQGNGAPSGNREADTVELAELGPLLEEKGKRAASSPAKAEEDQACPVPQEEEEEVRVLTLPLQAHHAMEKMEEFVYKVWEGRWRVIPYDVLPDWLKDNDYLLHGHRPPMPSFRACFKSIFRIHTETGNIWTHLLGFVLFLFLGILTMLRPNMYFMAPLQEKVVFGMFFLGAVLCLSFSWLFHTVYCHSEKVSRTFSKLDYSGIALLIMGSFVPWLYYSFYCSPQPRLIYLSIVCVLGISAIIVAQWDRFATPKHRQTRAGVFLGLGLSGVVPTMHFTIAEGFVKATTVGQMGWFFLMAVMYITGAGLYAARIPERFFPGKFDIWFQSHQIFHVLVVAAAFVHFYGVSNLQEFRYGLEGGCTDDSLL
Description: cell-based binding, bound adiponectin detected by Western blot of the cell lysate; mouse or human serum diluted in serum-free DMEM applied to transiently transfected HEK293 cells, 4°C, 1 hr, washed three times; lysates on SDS-PAGE or native-PAGE. Conditions: remark: other sources report otherwise.

In experiment [4] the target is T1, mouse AdipoR1 expressed on HEK293 cells …. The experiment is described as above. Conditions: remark: other sources report otherwise.
Experiment [5] concerns the target mouse calreticulin expressed in HEK293 cells (mouse) (UniProt P14211). As to the kind of experiment: cell-based binding, bound adiponectin detected by Western blot of the cell lysate; adiponectin purified from mouse serum or recombinant adiponectin applied to transiently transfected HEK293 cells, 4°C, 1 hr; only the binder purified.
The target in experiment [6] is T4, mouse T-cadherin expressed on HEK293 cells (mouse) (UniProt Q9WTR5).
T4 sequence: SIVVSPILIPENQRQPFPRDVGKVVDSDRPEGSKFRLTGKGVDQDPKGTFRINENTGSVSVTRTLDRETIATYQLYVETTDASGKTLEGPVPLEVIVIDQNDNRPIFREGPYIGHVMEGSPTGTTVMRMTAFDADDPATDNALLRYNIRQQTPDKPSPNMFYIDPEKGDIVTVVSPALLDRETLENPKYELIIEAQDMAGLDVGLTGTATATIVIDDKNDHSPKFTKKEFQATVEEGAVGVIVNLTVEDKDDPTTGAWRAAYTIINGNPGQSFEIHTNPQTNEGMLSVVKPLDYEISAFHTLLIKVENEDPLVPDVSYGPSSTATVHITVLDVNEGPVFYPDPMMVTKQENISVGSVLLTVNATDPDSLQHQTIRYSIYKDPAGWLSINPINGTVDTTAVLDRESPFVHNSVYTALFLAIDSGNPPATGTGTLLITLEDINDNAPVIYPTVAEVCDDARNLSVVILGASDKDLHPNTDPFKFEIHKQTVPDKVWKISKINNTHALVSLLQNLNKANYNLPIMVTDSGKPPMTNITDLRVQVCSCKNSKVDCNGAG
Described as above.

B1: Full-length mammalian recombinant mouse adiponectin, Q60994 18-247 (ligand)
chain: EDDVTTTEELAPALVPPPKGTCAGWMAGIPGHPGHNGTPGRDGRDGTPGEKGEKGDAGLLGPKGETGDVGMTGAEGPRGFPGTPGRKGEPGEAAYVYRSAFSVGLETRVTVPNVPIRFTKIFYNQQNHYDGSTGKFYCNIPGLYYFSYHITVYMKDVKVSLFKKDKAVLFTYDQYQEKNVDQASGSVLLHLEVGDQVWLQVYGDGDHNGLYADNVNDSTFTGFLLYHDTN
As for B1, in experiment [1], the binding entry is on record as “no binding”.

B2: native mouse adiponectin in mouse serum, Q60994 18-247 (ligand)
chain: EDDVTTTEELAPALVPPPKGTCAGWMAGIPGHPGHNGTPGRDGRDGTPGEKGEKGDAGLLGPKGETGDVGMTGAEGPRGFPGTPGRKGEPGEAAYVYRSAFSVGLETRVTVPNVPIRFTKIFYNQQNHYDGSTGKFYCNIPGLYYFSYHITVYMKDVKVSLFKKDKAVLFTYDQYQEKNVDQASGSVLLHLEVGDQVWLQVYGDGDHNGLYADNVNDSTFTGFLLYHDTN
Turning to B2, the binding entry in experiment [2], in experiment [3], in experiment [4] and in experiment [1] was “no binding” throughout.

B3: Full-length mammalian recombinant mouse adiponectin (ligand, UniProt Q60994 18-247, looked up)
chain: EDDVTTTEELAPALVPPPKGTCAGWMAGIPGHPGHNGTPGRDGRDGTPGEKGEKGDAGLLGPKGETGDVGMTGAEGPRGFPGTPGRKGEPGEAAYVYRSAFSVGLETRVTVPNVPIRFTKIFYNQQNHYDGSTGKFYCNIPGLYYFSYHITVYMKDVKVSLFKKDKAVLFTYDQYQEKNVDQASGSVLLHLEVGDQVWLQVYGDGDHNGLYADNVNDSTFTGFLLYHDTN
notes: adiponectin, mouse, full-length recombinant, produced in HEK293 cells; contains less 6-mer and HMW multimer than serum adiponectin; the secreted product probably lacks the signal peptide; also called recombinant adiponectin; full-length recombinant adiponectin produced in HEK293 cells; source: bought: BioVendor (RD272023100), produced in HEK293 cells
In the case of B3, the binding result in experiment [5] is given as “no binding”; in experiment [6], “binds”.
